Measurements from PubChem BioAssay AID588855 (National Center for Advancing Translational Sciences (NCATS), 2011).
Values joined by “and” are separate entries in the source; they are usually repeats but may differ in a detail not shown here. Equal values may be shown once. Hit rate of the full screen: of about 410,000 compounds, about 5,000 (1.2%) were called active. Inconclusive means that the source gave no clear call. Such entries were picked first, then a sample of the others. Calls come from the whole dose curve; as a rule, active = well fitted inhibition curve with a large enough effect; inconclusive = small, poorly fitted or top-dose-only effect; inactive = no such curve, though single readings can be large or run the other way. Potencies beside an inconclusive call are fits to weak or partial responses and may not hold up.

Test: qHTS for Inhibitors of TGF-b; note: nearly all actives have a fitted effect of over 65% in size
Conditions: HepG2 CAGA-GFP TGF-b/SMAD3 reporter, GFP fluorescence, 18 h, TGF-beta stimulated, 500 pg/mL final; series mostly up to 46.1 µM
How it was run: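 Smad-responsive CAGA-GFP expression was quantified in HEPG2 cells exposed to compounds and 500 pg/mL final TGF-beta for 18 h at 37 degrees C; unstimulated wells defined full inhibition.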
Potency is the fitted concentration of half-maximal effect; tags give direction and shape of the fitted curve.

| SMILES | Potency |
| --- | --- |
| CN1CCN(c2ccccc2NC(=O)c2ccc(-c3ccc(Br)cc3)o2)CC1 | inactive |
| CC(C)Cn1c(-c2csc(C(C)C)c2)n[nH]c1=S | inconclusive: 20 µM [inhibitor, partial curve, poor fit] |
| Cc1ccc(NC(=O)CC2Nc3cccc4cccc(c34)NC2=O)cc1 (stereo unspecified) | active: 11.2 µM |
| COc1ccc(N(Cc2ccccc2)C(=O)c2nc(SC)ncc2Cl)cc1 | active: 12.6 µM |
| FC(F)(F)c1ccc(C2[C@H]3CN(Cc4cccnc4)[C@H](c4ccccc4)C34CC2(c2ccccc2)C4)cc1 (stereo partly specified) | inactive |
| COc1ccc(C2C=C(C34CC5CC(CC(C5)C3)C4)NC(=S)N2)cc1OC (stereo unspecified) | inconclusive: 25.1 µM [inhibitor, single point] |
| Cc1ccc(Sc2nnc(Cc3ccccc3)c3ccccc23)cc1 | active: 14.1 µM |
| Cc1nc2ccc([N+](=O)[O-])cc2[nH]1 | inactive |
| CCc1ccc(NC(=O)C(=O)NCC2CCCN2S(=O)(=O)c2cccs2)cc1 (stereo unspecified) | inconclusive: 12.6 µM [inhibitor, partial curve] |
| Cn1c(=O)oc2cc(S(=O)(=O)N3CCCC(C(=O)Nc4ccc5c(c4)OCCO5)C3)ccc21 (stereo unspecified) | inconclusive: 35.5 µM [inhibitor, single point] |
| O=c1c2c(nc3c(-c4ccc(Cl)cc4)c[nH]n13)CCCC2 | inconclusive: 14.1 µM [inhibitor, partial curve, poor fit] |
| COc1ccc2c(c1)CCc1cn[nH]c1-2 | inactive |
| O=C1Nc2ccc(F)cc2C12Nc1ccccc1-c1nnc(SCc3ccccc3F)nc1O2 (stereo unspecified) | inconclusive: 12.6 µM [inhibitor, partial curve, poor fit] |
| CCCCC/C=C/C1=CC(=O)C[C@H](c2ccc(OC)c(OC)c2)C1 | inconclusive: 22.4 µM [inhibitor, single point] |
| CCCCCn1c(=O)c(C(=O)OCC)c(Cl)c2ccccc21 | inconclusive: 10 µM [inhibitor, partial curve, poor fit] |
| N=C1c2ccccc2CN1NC(=O)c1cccc(S(=O)(=O)N2CCCCC2)c1 | inactive |
| CSc1ccccc1C(=O)N1CCOCC1 | inactive |
| CCOC(=O)C(C)Sc1nc(-c2ccccn2)ncc1OC (stereo unspecified) | inconclusive: 3.16 µM [inhibitor, partial curve, poor fit] |
| COc1ccc(Cl)cc1NC(=O)CCCn1c(C)c2cnn(-c3ccccc3)c(=O)c2c1C | inconclusive: 22.4 µM [inhibitor, single point] |
| COc1ccc(CNC(=O)c2cccc(NC(=O)N3CCSc4ncccc43)c2)cc1 | inconclusive: 12.6 µM [inhibitor, partial curve, poor fit] |
| Cc1ccc(S(=O)(=O)Nc2cccc3ncccc23)s1 | inconclusive: 0.562 µM [inhibitor, full curve, poor fit] |
| COc1cccc2c(=O)c3ccoc3n(C)c12 | inactive |

| SMILES | Potency |
| --- | --- |
| CC(C)=CCc1c(O)cc2oc3c(CC=C(C)C)c(O)c(O)c(CC=C(C)C)c3c(=O)c2c1O | active: 6.31 µM |
| O=C(Nc1ccccc1Cl)C1CCN(c2nc3ccccc3nc2C(F)(F)F)CC1 | inconclusive: 8.91 µM [inhibitor, partial curve, poor fit] |
| C=C1CCN(C(C(=O)NCc2ccc(Cl)c(Cl)c2)C(C)C)S(=O)(=O)c2ccccc21 (stereo unspecified) | inconclusive: 35.5 µM [inhibitor, single point] |
| O=C(NCCn1cc(SCc2ccccc2Cl)c2ccccc21)c1cccs1 | inconclusive: 1.78 µM [inhibitor, partial curve, poor fit] |
| Cc1cc(C)cc(NC(=O)Cn2cc(S(=O)(=O)NC(C)(C)C)c(S(=O)(=O)NC(C)(C)C)c2)c1 | inconclusive: 12.6 µM [inhibitor, partial curve, poor fit] |
| COP(=O)(OC)C(Nc1cc(Cl)cc(Cl)c1)c1cccc(O)c1 (stereo unspecified) | inconclusive: 35.5 µM [inhibitor, single point] |
| COC(=O)CN1C(=S)N(Cc2ccccc2)C(=O)C1CC(=O)Nc1ccc(Br)cc1 (stereo unspecified) | inconclusive: 35.5 µM [inhibitor, single point] |
| O=C1N(Cc2ccccc2)c2ccc(Cl)cc2C1(O)c1c[nH]c2ccccc12 (stereo unspecified) | inconclusive: 22.4 µM [inhibitor, single point] |
| COc1cc(/C=N/NC(=O)c2cccc(S(=O)(=O)N3CCCCC3)c2)cc(Br)c1O | inconclusive: 7.94 µM [inhibitor, partial curve, poor fit] |
| O=c1c2ccccc2nc2n1C(CSc1ccc(Br)cc1)CN2 (stereo unspecified) | inconclusive: 6.31 µM [inhibitor, single point] |
| Cc1cc2nc(-c3ccc(OCc4ccccc4Cl)cc3)cc(C(F)(F)F)n2n1 | inactive |
| Cc1ccc(NS(=O)(=O)c2ccc3c(c2)n(C)c(=O)n3C)cc1C | inactive |
| Cc1ccc(S(=O)(=O)NC2(C(F)(F)F)NC(=O)N(CCc3ccccc3)C2=O)cc1 (stereo unspecified) | inconclusive: 5.62 µM [inhibitor, single point] |
| CCc1cc2c(=O)c(-c3ccc4c(c3)OCCO4)coc2cc1OC(=O)c1ccco1 | inactive |
| NNC(=O)c1cc2cc3ccccc3nc2s1 | inconclusive: 35.5 µM [inhibitor, single point] |
| Cc1ccccc1NC(=O)c1cc(S(=O)(=O)N2CCCCC2)cs1 | inconclusive: 6.31 µM [inhibitor, single point] |
| CCN(c1ccccc1)S(=O)(=O)c1ccc(Oc2ccc(C(C)=O)cc2OC)nc1 | inconclusive: 17.8 µM [inhibitor, single point] |
| O=C(CS(=O)(=O)c1ccccc1)Nc1nc(-c2ccc(F)cc2)cs1 | inconclusive: 35.5 µM [inhibitor, single point] |
| Cc1cccc(C(=O)NCC(=O)OCc2cc(=O)n3nc(CC(C)C)sc3n2)c1 | inconclusive: 35.5 µM [inhibitor, single point] |
| CC1CCCCN1S(=O)(=O)c1ccc(C(=O)Nc2nnc(-c3ccncc3)o2)cc1 (stereo unspecified) | inconclusive: 17.8 µM [inhibitor, single point] |
| Cc1sc2nc(CSc3ccccc3)nc(N3CCC(C(N)=O)CC3)c2c1C | inconclusive: 35.5 µM [inhibitor, single point] |
| COc1cccc(NC(=O)c2cc(-c3ccccn3)nc3ccccc23)c1 | inconclusive: 35.5 µM [inhibitor, partial curve, poor fit] |

| SMILES | Potency |
| --- | --- |
| COc1ccc(C(CC(=O)O)NS(=O)(=O)c2ccc3c(c2)NC(=O)CO3)cc1 (stereo unspecified) | inactive |
| CN(C)c1ccc(C(=O)C(O)c2ccccc2Cl)cc1 (stereo unspecified) | inactive |
| CC(=O)NC(c1ccc(C(C)C)cc1)c1c(O)ccc2ccccc12 (stereo unspecified) | inconclusive: 35.5 µM [inhibitor, single point] |
| CCOC(CCn1ccc(O)c(Cc2ccc(Cl)cc2)c1=O)OCC | inconclusive: 0.708 µM [inhibitor, partial curve, poor fit] |
| CCc1c(C(=O)Nc2ccccc2)c(C)[nH]c(=S)c1C#N | inactive |
| CN(C)CCNC(=O)COc1ccc(C23CC4CC(CC(C4)C2)C3)cc1 | inconclusive: 35.5 µM [inhibitor, single point] |
| COc1cc2c(cc1NC(=O)CN(C)Cc1ccc(OC)c(OC)c1)oc1ccccc12 | inactive |
| CCCC(=O)NC(c1ccc(OC)c(OC)c1)c1cc(Cl)c2cccnc2c1O (stereo unspecified) | inconclusive: 631 nM [inhibitor, partial curve, poor fit] and inconclusive: 17.8 µM [inhibitor, single point] |
| CN(CC(=O)NC1CC1)S(=O)(=O)c1ccc(F)cc1 | inactive |
| CC1(C)CC(=O)C(C=NCCN2CCN(C(=O)CCl)CC2)=C(O)C1 | inconclusive: 35.5 µM [inhibitor, single point] |
| CCC1CN(C(=O)NCc2ccc(C)cc2)c2cc(Cl)ccc2O1 (stereo unspecified) | inconclusive: 31.6 µM [inhibitor, single point] and inconclusive: 17.8 µM [inhibitor, single point] |
| Cc1nn2c(nc(N3CCCCC3)c3ccccc32)c1C=O | inconclusive: 35.5 µM [inhibitor, single point] |
| CNC(=S)N/N=C/c1c(C)cccc1Cl | inactive |
| CCn1nc(NS(=O)(=O)c2ccc([N+](=O)[O-])cc2)c2cc3ccccc3nc21 | inactive |
| C=CC[C@@H](CC(=O)N(CCO)Cc1ccccc1)C(=O)NC[C@@H](OC(=O)[C@@H](CC=C)Cc1ccc(F)cc1)c1ccccc1 | inconclusive: 15.8 µM [inhibitor, single point] |
| Clc1cccc(-c2nc(-c3ccccn3)no2)c1 | inconclusive: 25.1 µM [inhibitor, single point] |
| Cc1ccc2c(/C=C/c3ccc(N(C)C)cc3)c(C)cnc2c1 | inconclusive: 35.5 µM [inhibitor, single point] |
| O=C(Nc1sc2c(c1C(=O)O)CCCC2)c1cccc(Cl)c1 | inconclusive: 35.5 µM [inhibitor, single point] |
| COCCNS(=O)(=O)c1cc(-c2nn(C)c(=O)c3ccccc23)ccc1C | inactive |
| COc1ccccc1N1CCN(C(=O)CN2C(=O)COc3ccc(S(=O)(=O)N4CCCCCC4)cc32)CC1 | inconclusive: 35.5 µM [inhibitor, single point] |
| O=C(CCC1CCCCC1)NCCN1C2=NC[C@@H](Cc3ccccc3)N2C[C@H]1Cc1ccc(O)cc1 | inconclusive: 35.5 µM [inhibitor, single point] |
| CCOC(=O)C1=NN(c2ccccc2)C(c2ccccc2)CC1=O (stereo unspecified) | inconclusive: 6.31 µM [inhibitor, single point] |
